# From PMC4242493
# Some of the results follow. The list includes weakly bound sequences.
# Target: MaxL homodimer (UniProt P61244)
# Experiment: universal protein-binding microarray (PBM)
# Settings: PBS-based mixture, 10 nM His-tagged protein dimer, 2% milk, 200 ng/uL BSA, 50 ng/uL salmon testes DNA, 0.02% TX-100; detection with Alexa 488 anti-His …; high values mean tight binding; most listed sequences are background and not binding sites; double strand, one strand shown
# Sequence of UniProt P61244 (P61244 whole entry): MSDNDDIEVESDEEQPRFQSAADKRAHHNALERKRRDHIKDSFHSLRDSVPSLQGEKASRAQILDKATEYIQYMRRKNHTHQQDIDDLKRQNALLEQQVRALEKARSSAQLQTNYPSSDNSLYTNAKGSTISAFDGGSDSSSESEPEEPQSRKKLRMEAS
row,Sequence,binding signal (normalized occupancy)
1,GTGGTGAA,0.0794
2,ACTTCAGA,0.071
3,AGAAATCT,0.0721
4,ATTACACC,0.0814
5,GGAACTCA,0.0728
6,CGGATGTC,0.0765
7,CAACAACC,0.0724
8,AACCCGTA,0.0739
9,CGACGCAA,0.0698
10,TATATTAA,0.0809
11,CTAAAGGC,0.0681
12,GGCACTGA,0.0693
13,GGGTTCAA,0.076
14,AGGCCACT,0.0708
15,ATCACGAT,0.0804
16,CAAAATGC,0.0757
17,CCCACATA,0.0855
18,ACGCCGCA,0.0784
19,CGTAATGC,0.0794
20,CCGATTTA,0.068
21,CTAAAACA,0.0782
22,GCTAAAGC,0.0687
23,ATAGGAAC,0.0762
24,GGGAGCCA,0.0735
25,AACGGACG,0.0644

row,Sequence,binding signal (normalized occupancy)
1,GTCAGACA,0.0729
2,AGAACGGG,0.0711
3,ATAGTGAA,0.0751
4,CCTTTAAG,0.0716
5,ACACGGGA,0.0922
6,ACTATCCA,0.0782
7,GTGCTATA,0.0793
8,AAGACGCC,0.0703
9,CGGACCCG,0.0644
10,ACAAACTG,0.071
11,CGACTGAG,0.0648
12,CGTCGGGA,0.0732
13,CCATACTA,0.0852
14,CGGGAGGA,0.0705
15,ATACTGGA,0.0785
16,GGCCGGCA,0.0744
17,ATCCTCCG,0.0769
18,ACCGTGTG,0.0873
19,ATTACTCG,0.0807
20,TGAAAGCA,0.0778
21,AGTGTACC,0.0756
22,GTAGCGAA,0.074
23,GAACGCGA,0.0778
24,GACCCGTC,0.0672
25,ACTTCGGG,0.0726

row,Sequence,binding signal (normalized occupancy)
1,CGCGCACG,0.0959
2,ACCAATCG,0.0812
3,AACACGCA,0.0915
4,AAGCCTGA,0.0681
5,ATATACTC,0.0842
6,CTGTTGAC,0.0783
7,ACCTTATC,0.0772
8,CGTCTTCA,0.0763
9,CTAAACCC,0.079
10,CCAATGAG,0.0767
11,ATCCTGCG,0.0672
12,GTTCCGCA,0.0719
13,AGTTAGGC,0.0691
14,CCCCAATA,0.0808
15,TAAAGCCA,0.0762
16,AAGGGCTG,0.0651
17,ATCCGGAC,0.0735
18,CCTGCGGA,0.0692
19,AACCGCAG,0.0674
20,TAGAGGAA,0.0715
21,CATGTTGA,0.0943
22,GGAGATCA,0.0755
23,TGAACTAA,0.0704
24,ACACGGGG,0.0917
25,GGATACGA,0.0818

row,Sequence,binding signal (normalized occupancy)
1,CCTGATGA,0.0802
2,CTGTTGGC,0.0725
3,ACAGCATC,0.0767
4,AGGCTATC,0.0772
5,GAGAAGAC,0.0703
6,AGCCTAGG,0.0612
7,TAGTCAAA,0.0703
8,CGGACGTC,0.068
9,GCAAACTA,0.0788
10,CGGGAGAC,0.07
11,CACGTTGA,0.115
12,GCGCCAGC,0.0685
13,AGGGGGGA,0.0821
14,AGCAGTTC,0.0701
15,AAACGTAG,0.0771
16,ACGGCTGC,0.0671
17,ATATAGGA,0.0892
18,ACCCGTGC,0.088
19,CGATACGA,0.0714
20,TAACGTCA,0.0767
21,CTCAGGGC,0.0683
22,CCAGAGAA,0.0767
23,AAGCATGC,0.118
24,CAGGGTTA,0.0754
25,CCGCTAGG,0.0685

row,Sequence,binding signal (normalized occupancy)
1,GCCTTCCA,0.0728
2,AGCCACGC,0.109
3,GTGCTTTA,0.0871
4,ACTGCAAG,0.0662
5,AGCACTGC,0.0715
6,AACTGCCC,0.0722
7,AATCGAGT,0.0743
8,TAAGGGCA,0.0747
9,ACTCTCGA,0.0716
10,ACAACTCT,0.0733
11,AACGCGGG,0.0715
12,CCCGAATA,0.0758
13,AGGCCTCC,0.0686
14,CTAAGTAG,0.0773
15,CGCATCAG,0.0761
16,AGTCAGGG,0.0757
17,AACGGCCG,0.069
18,GGCTATCA,0.0738
19,CAGATACA,0.0802
20,AGTACAAA,0.0758
21,ACAGCGAA,0.0686
22,ACAAGGGT,0.0803
23,ACGGGTTA,0.0794
24,TAGGTGCA,0.0786
25,AAATGCTG,0.0762

row,Sequence,binding signal (normalized occupancy)
1,ATTAGGAG,0.0749
2,AGAACAGA,0.0719
3,CGGCAGGA,0.0662
4,AATAGCAT,0.0903
5,ACACTTAC,0.0756
6,TACACTAA,0.0779
7,ATTGTAAA,0.0758
8,ACCAAGGT,0.0688
9,GTAATGAC,0.0783
10,ATTTTTGA,0.0755
11,AGCAATGG,0.0692
12,CGACACTC,0.0757
13,CAACCGCC,0.0694
14,AGCCTGCC,0.0726
15,CCCGGCAA,0.0691
16,CCGGGGAC,0.0735
17,AAACACCC,0.0791
18,GTCACACA,0.0866
19,AATCAACT,0.074
20,CTTCTGGC,0.066
21,TAACATCA,0.081
22,CGAAGGGA,0.0709
23,GTCGACAA,0.0718
24,ACGTCTAT,0.0824
25,AGGGGCGG,0.0739

row,Sequence,binding signal (normalized occupancy)
1,GTGGTTTA,0.0801
2,GGAACCAC,0.0736
3,CGGTTGAG,0.0679
4,AGGACCCT,0.0708
5,AACATATC,0.0856
6,CTTATACA,0.0827
7,CCACTAGG,0.0766
8,CAACACTG,0.0764
9,ATGATGAA,0.0854
10,AGATAACC,0.0791
11,AGCGTGAA,0.0854
12,TCTCCACA,0.0763
13,CCACGGCA,0.0858
14,TAGTGATA,0.0798
15,CGGGGAAG,0.0714
16,AACCGTTG,0.0784
17,AGCTCAAC,0.0682
18,GATTTCCA,0.0734
19,CTGCTAAG,0.0693
20,ACCTAAGC,0.0714
21,AATCTGAA,0.0757
22,ACTAAATA,0.0771
23,AGGCTCAT,0.0751
24,GCCCCCCA,0.0777
25,AAGCCATC,0.0756

row,Sequence,binding signal (normalized occupancy)
1,CGTCGAAG,0.0714
2,GTATTGAA,0.0793
3,AGTACTTC,0.0673
4,ATTGAATC,0.0785
5,AACACCTG,0.0895
6,CCTCCACC,0.0784
7,CTAGCAGC,0.0696
8,CTCCGTTA,0.0722
9,ATTCGGTG,0.0777
10,GCGCAGGA,0.0691
11,CTATTTGA,0.0758
12,ACCGCCTG,0.083
13,CTGACCGC,0.0743
14,AAGAGCCG,0.0673
15,CCAGCCTA,0.0697
16,ACACCGCA,0.0731
17,AAGCGACG,0.0703
18,ACCAGGTG,0.0893
19,ATCCCAAC,0.0789
20,TTACTAAA,0.0728
21,AGGAATTC,0.073
22,AGAACTTC,0.0693
23,CCGTAGTA,0.0713
24,GGTAAGAC,0.0711
25,GGATACAA,0.0778

row,Sequence,binding signal (normalized occupancy)
1,GATCCAAA,0.0712
2,GCTTCACC,0.0668
3,GGGCGCAC,0.0766
4,GATACGGA,0.0782
5,GTTACGTA,0.0751
6,TATACCAA,0.0889
7,AAGCCTCA,0.07
8,GTTCATAA,0.0811
9,ATCACATA,0.0859
10,GAGACTCC,0.0714
11,ATCTCGGA,0.068
12,ATTGAGGG,0.0756
13,GAATGTCA,0.0751
14,GTGCACAC,0.0921
15,CAGGGAGA,0.0751
16,AAGCTTAA,0.0702
17,AGCGTTAG,0.0756
18,ATCCAGGC,0.0783
19,ACGCCCGC,0.0813
20,ACTTTGGA,0.0703
21,AAGGTCCG,0.0761
22,AAAGGTAT,0.0771
23,ACTGGCAT,0.0763
24,CCAGGAAC,0.0704
25,CCAATATC,0.0803

row,Sequence,binding signal (normalized occupancy)
1,AAGATTAG,0.0757
2,ACAACGCA,0.0833
3,ATTGGGCC,0.0677
4,TGACGCCA,0.0771
5,AAGCCGAT,0.0668
6,GATCAATA,0.0801
7,ACTCCCTG,0.071
8,GGACCTCC,0.0678
9,TTCTGAAA,0.0747
10,AACTTTCA,0.0708
11,CAGTTTTC,0.0717
12,CAATGACA,0.0813
13,TATTTGCA,0.0802
14,CTTAGTCC,0.0725
15,ATTTCTAA,0.0757
16,AAGGACCA,0.0704
17,AAGACGGG,0.0754
18,ACTGCGGC,0.0713
19,CAATTTTC,0.0732
20,ACAGTCGC,0.0719
21,GATCAAGC,0.0745
22,AAATATGT,0.0809
23,TATATAAA,0.0828
24,ATGTAAAC,0.0776
25,ACATTGAT,0.0824

row,Sequence,binding signal (normalized occupancy)
1,CTGCCGCC,0.0675
2,AACGGCTC,0.0724
3,CAATCGAA,0.0732
4,ATTGGCCA,0.0751
5,AAAACACA,0.077
6,ACTGCCCA,0.0813
7,AACAATCT,0.0759
8,CCTACAAA,0.0728
9,GTCAGCGA,0.0751
10,ACCGTACC,0.0739
11,CCAAATCA,0.0792
12,AGCGACCA,0.07
13,CTGTTCGC,0.0713
14,ATAGGTAG,0.0776
15,CCCTGTAC,0.0816
16,GATCAAAC,0.0751
17,GCACGGTA,0.0784
18,CTTGGCGA,0.0734
19,AAACGAGG,0.081
20,ATTTGATG,0.0782
21,AAGAAGGG,0.081
22,ATCAATGC,0.08
23,CATGTGAA,0.127
24,AAGATTTA,0.075
25,CCCACCGA,0.0729

row,Sequence,binding signal (normalized occupancy)
1,AGATCACA,0.0817
2,ACGCAGTA,0.0714
3,ACTGAGTC,0.0721
4,GAGCATCA,0.0734
5,GTCGCCGA,0.0777
6,CGCATGTA,0.105
7,ATTCAAAC,0.0775
8,AAATCATA,0.0772
9,ATGAATCA,0.0807
10,ACGCGTAC,0.0805
11,ACGTACAA,0.075
12,CGCTGAAA,0.0703
13,CTTATCCC,0.0759
14,ATTGAAAG,0.0771
15,CATGGTAA,0.0939
16,CCTCAAAA,0.0747
17,AGGGGTAA,0.0789
18,CCCATGTC,0.0854
19,AGGGGCCG,0.0755
20,GATGCGGC,0.0788
21,AGAGTCAT,0.0809
22,AAATCAAC,0.0734
23,CAGATGTA,0.0828
24,ACATTTAG,0.0818
25,AGGATGTG,0.0831

row,Sequence,binding signal (normalized occupancy)
1,AGGGTTCC,0.0694
2,AACTTAGT,0.0719
3,TGCGGCCA,0.0788
4,ATAAGGGC,0.0746
5,ACTATATA,0.0884
6,CTGATCGA,0.0724
7,AGTGGTAG,0.0787
8,AATAAAGA,0.0762
9,CTCGCCCA,0.0695
10,CTAGAGTC,0.0717
11,AATGTCGA,0.0807
12,CACAAGCA,0.0756
13,GGCGATCA,0.0766
14,CTGTCCAC,0.0845
15,GCGACGAA,0.0665
16,GGTGGTAC,0.0783
17,GGGTGCAC,0.0786
18,GATACTCC,0.0769
19,CCCCGCGA,0.076
20,GGTCTCAC,0.077
21,GCAATTAA,0.0692
22,GCAGGCCA,0.0703
23,GAGTTCCA,0.0715
24,GTTGGGAA,0.0772
25,ACTTCGAG,0.0692

row,Sequence,binding signal (normalized occupancy)
1,GAGGACAA,0.074
2,GGCGCTGA,0.0707
3,CCCCCCCG,0.0865
4,AGAATTTG,0.0688
5,CATTCCGA,0.0764
6,CCGGTGAC,0.0707
7,GGTTAAGA,0.0768
8,CAACGGAA,0.0746
9,CGAGAACG,0.0741
10,CGTCGCGC,0.0713
11,AATTAAGA,0.076
12,CGTAGCCA,0.0736
13,CCCTTAGG,0.0675
14,CCCGTGAG,0.0759
15,ATGCTGTA,0.0898
16,ACGAACAG,0.0753
17,AATGCCTC,0.0826
18,ATAACGCC,0.0792
19,AAGTTACG,0.0689
